Laboratory results: the supplement of paper PMC11125491
± gives the standard deviation of the averaged measurements. Growth of baker's yeast expressing single-residue variants of Pneumocystis jirovecii dihydrofolate reductase in 8.8 or 44 µM methotrexate (about 75% and 90% inhibition of the wild type). Selection coefficient per generation; 0 = like wild type, above 0 = less sensitive, below 0 = more sensitive or loss of function. No active / inactive call per row; the paper calls resistant above 0.220 (8.8 µM) or 0.243 (44 µM) together with a significance test. At 44 µM about 15% of codons end with one read or none, so the lowest values are floors (replicate rank correlation 0.74; 0.94 at 8.8 µM).

B1: UniProt A0EPZ9; numbered along this chain (parent)
chain: MDWQKSLTLIVALTLSRGIGLKNDLPWKLKSDMMFFSRVTSGLLVTRSTGQMNVVLMGRKTWESLPAHSRPLKNRINVVISRQEVLDLGGGAYHARSLDDALALLSQIYDSTSKIQLNRVFVIGGGELCKAAMEHSRLNRIIATVIHNEVDCDVFFPIDFRSSQSCLPWRKQDHSVLEAWVGSKVPQGKINENGFIYEFEMWIRDI

Variants of: B1
Experiment: selection coefficient against synonymous wild-type codons (log2 per generation); higher = faster growth than wild type
Settings: with Saccharomyces cerevisiae carrying the variant on a plasmid
Description: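 Pooled growth of yeast carrying single-residue variants of P. jirovecii dihydrofolate reductase (own DFR1 gene intact), two passages at 30 °C, three cultures, sequenced before and after. Codons with under 15 starting reads are left out; codons of one change are averaged.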

Variant | selection coefficient against synonymous wild-type codons (log2) (methotrexate 8.8 µM) | selection coefficient against synonymous wild-type codons (log2) (methotrexate 44 µM)
Y93T | -0.454 ± 0.093 | -0.302 ± 0.033
Y93V | -0.321 ± 0.077 | -0.279 ± 0.11
Y93W | -0.251 ± 0.055 | -0.266 ± 0.11
H94A | -0.483 ± 0.098 | -0.235 ± 0.059
H94C | -0.426 ± 0.071 | -0.256 ± 0.11
H94D | -0.71 ± 0.016 | -0.206 ± 0.06
H94E | -0.432 ± 0.21 | -0.296 ± 0.2
H94F | -0.523 ± 0.05 | -0.239 ± 0.055
H94G | -0.614 ± 0.17 | -0.266 ± 0.049
H94I | -0.63 ± 0.19 | -0.257 ± 0.033
H94K | -0.585 ± 0.13 | -0.212 ± 0.071
H94L | -0.571 ± 0.13 | -0.315 ± 0.048
H94M | -0.695 ± 0.13 | -0.236 ± 0.021
H94N | -0.621 ± 0.15 | -0.275 ± 0.047
H94P | -0.669 ± 0.07 | -0.201 ± 0.086
H94Q | -0.0901 ± 0.049 | -0.0879 ± 0.043
H94R | -0.516 ± 0.15 | -0.188 ± 0.097
H94S | -0.366 ± 0.074 | -0.312 ± 0.051
H94T | -0.454 ± 0.12 | -0.229 ± 0.09
H94V | -0.629 ± 0.13 | -0.231 ± 0.11
H94W | -0.0158 ± 0.041 | 0.000318 ± 0.023
H94Y | -0.445 ± 0.046 | -0.161 ± 0.033
A95C | -0.191 ± 0.038 | -0.229 ± 0.053

Variant | selection coefficient against synonymous wild-type codons (log2) (methotrexate 8.8 µM) | selection coefficient against synonymous wild-type codons (log2) (methotrexate 44 µM)
A95D | -0.742 ± 0.054 | -0.351 ± 0.084
A95E | -0.637 ± 0.07 | -0.29 ± 0.042
A95F | -0.634 ± 0.1 | -0.201 ± 0.086
A95G | -0.635 ± 0.13 | -0.202 ± 0.1
A95H | -0.727 ± 0.019 | -0.224 ± 0.058
A95I | -0.726 ± 0.057 | -0.223 ± 0.019
A95K | -0.578 ± 0.11 | -0.189 ± 0.038
A95L | -0.745 ± 0.087 | -0.325 ± 0.075
A95M | -0.681 ± 0.15 | -0.272 ± 0.16
A95N | -0.707 ± 0.11 | -0.341 ± 0.038
A95P | -0.608 ± 0.16 | -0.19 ± 0.057
A95Q | -0.765 ± 0.11 | -0.374 ± 0.036
A95R | -0.612 ± 0.11 | -0.207 ± 0.097
A95S | -0.423 ± 0.13 | -0.181 ± 0.12
A95T | -0.426 ± 0.12 | -0.209 ± 0.17
A95V | -0.315 ± 0.091 | -0.234 ± 0.18
A95W | -0.834 ± 0.11 | -0.373 ± 0.036
A95Y | -0.748 ± 0.12 | -0.332 ± 0.039
R96A | -0.2 ± 0.056 | -0.178 ± 0.082
R96C | -0.372 ± 0.0048 | -0.361 ± 0.054
R96D | -0.452 ± 0.072 | -0.268 ± 0.058
R96E | -0.327 ± 0.047 | -0.257 ± 0.04
R96F | -0.424 ± 0.068 | -0.336 ± 0.069

Variant | selection coefficient against synonymous wild-type codons (log2) (methotrexate 8.8 µM) | selection coefficient against synonymous wild-type codons (log2) (methotrexate 44 µM)
R96G | -0.356 ± 0.041 | -0.347 ± 0.047
R96I | -0.438 ± 0.099 | -0.391 ± 0.043
R96K | 0.0316 ± 0.048 | 0.0774 ± 0.09
R96L | -0.508 ± 0.045 | -0.098 ± 0.39
R96M | -0.61 ± 0.034 | -0.246 ± 0.16
R96N | -0.251 ± 0.075 | -0.188 ± 0.12
R96P | -0.461 ± 0.17 | -0.176 ± 0.048
R96Q | -0.157 ± 0.056 | -0.146 ± 0.11
R96S | -0.253 ± 0.13 | -0.153 ± 0.061
R96T | -0.172 ± 0.071 | -0.156 ± 0.091
R96V | -0.406 ± 0.11 | -0.309 ± 0.075
R96W | -0.526 ± 0.081 | -0.276 ± 0.055
R96Y | -0.367 ± 0.034 | -0.235 ± 0.018
S97A | -0.647 ± 0.082 | -0.144 ± 0.07
S97C | -0.326 ± 0.063 | -0.224 ± 0.14
S97D | -0.224 ± 0.05 | -0.294 ± 0.12
S97E | -0.792 ± 0.044 | -0.288 ± 0.04
S97F | -0.61 ± 0.16 | -0.264 ± 0.057
S97G | -0.447 ± 0.12 | -0.222 ± 0.087
S97H | -0.55 ± 0.09 | -0.197 ± 0.16
S97I | -0.749 ± 0.046 | -0.245 ± 0.061
S97K | -0.679 ± 0.092 | -0.219 ± 0.029
S97L | -0.733 ± 0.083 | -0.273 ± 0.069

Variant | selection coefficient against synonymous wild-type codons (log2) (methotrexate 8.8 µM) | selection coefficient against synonymous wild-type codons (log2) (methotrexate 44 µM)
S97M | -0.697 ± 0.031 | -0.0936 ± 0.17
S97N | -0.253 ± 0.06 | -0.189 ± 0.11
S97P | -0.541 ± 0.12 | -0.174 ± 0.12
S97Q | -0.706 ± 0.034 | -0.203 ± 0.043
S97R | -0.595 ± 0.11 | -0.182 ± 0.064
S97T | -0.164 ± 0.044 | 0.107 ± 0.41
S97V | -0.654 ± 0.024 | -0.152 ± 0.057
S97W | -0.545 ± 0.16 | -0.113 ± 0.035
S97Y | -0.687 ± 0.12 | -0.341 ± 0.037
L98A | -0.608 ± 0.16 | -0.307 ± 0.088
L98C | -0.77 ± 0.057 | -0.266 ± 0.019
L98D | -0.673 ± 0.02 | 0.172 ± 0.54
L98E | -0.795 ± 0.046 | -0.29 ± 0.048
L98F | -0.00854 ± 0.045 | 0.00767 ± 0.092
L98G | -0.696 ± 0.082 | -0.193 ± 0.13
L98H | -0.579 ± 0.078 | -0.0772 ± 0.064
L98I | 0.136 ± 0.031 | 0.25 ± 0.031
L98K | -0.658 ± 0.053 | -0.155 ± 0.035
L98M | -0.231 ± 0.016 | -0.202 ± 0.2
L98N | -0.639 ± 0.046 | -0.18 ± 0.054
L98P | -0.774 ± 0.09 | -0.299 ± 0.072
L98Q | -0.769 ± 0.032 | -0.265 ± 0.11
L98R | -0.729 ± 0.076 | -0.269 ± 0.045

Variant | selection coefficient against synonymous wild-type codons (log2) (methotrexate 8.8 µM) | selection coefficient against synonymous wild-type codons (log2) (methotrexate 44 µM)
L98S | -0.669 ± 0.17 | -0.24 ± 0.1
L98T | -0.731 ± 0.047 | -0.228 ± 0.036
L98V | -0.217 ± 0.049 | -0.172 ± 0.17
L98W | -0.398 ± 0.032 | -0.317 ± 0.046
L98Y | -0.502 ± 0.2 | -0.156 ± 0.12
D99A | -0.291 ± 0.068 | -0.254 ± 0.054
D99C | -0.347 ± 0.054 | -0.306 ± 0.12
D99E | -0.126 ± 0.0038 | -0.146 ± 0.21
D99F | -0.5 ± 0.23 | -0.1 ± 0.012
D99G | -0.349 ± 0.12 | -0.132 ± 0.09
D99I | -0.621 ± 0.11 | -0.231 ± 0.064
D99K | -0.373 ± 0.064 | -0.332 ± 0.087
D99L | -0.568 ± 0.12 | -0.349 ± 0.088
D99M | -0.598 ± 0.22 | -0.276 ± 0.027
D99N | -0.203 ± 0.022 | 0.211 ± 0.49
D99P | -0.217 ± 0.062 | -0.167 ± 0.1
D99Q | -0.253 ± 0.043 | -0.113 ± 0.19
D99R | -0.509 ± 0.039 | -0.389 ± 0.061
D99S | -0.284 ± 0.098 | -0.226 ± 0.09
D99T | -0.244 ± 0.053 | -0.223 ± 0.063
D99V | -0.419 ± 0.049 | -0.294 ± 0.1
D99W | -0.589 ± 0.041 | -0.303 ± 0.03
D99Y | -0.566 ± 0.16 | -0.193 ± 0.035
